“Also recorded” adds a separate entry of the source.
Columns and labels:
CXCR4 = target: T1, CXCR4 (Homo sapiens, UniProt P61073); test: Inhibition of SDF-1α ligand induced Ca++ flux in CCRF-CEM cells (Fluo-4); format: cell-based; settings: CCRF-CEM cells
T1 construct: CRL-1596 (Ramos); host or cells: Ramos, Jurkat 6E-1, CCRF-CEM
Method: 9N10 was only tested on IgG level. The experiment was performed using the naturally CXCR4^+ positive cell line CCRF-CEM.
The CCRF-CEM target cells, were harvested by centrifugation and washed twice in RPMI-1640 culture medium. Either 1 ml with 2.5×10^6 cells (for IgGs) or 10 ml with 2.5×10^7 cells (for scFvs) were mixed with Fluo-4-AM (acetoxymethyl ester; Invitrogen), Pluronic F-127 (Invitrogen) and Probenecid to final concentrations of 1 μM, 0.02% and 1 mM respectively. The cells were incubated at 37° C. for 60 mM on a vertical rotating wheel (7 rpm). All subsequent steps were done in the presence of 1 mM Probenecid. The cells were washed twice in RPMI-1640 with 10% fetal calf serum (FCS), once in an assay buffer (145 mM NaCl, 4 mM KCl, 1 mM NaH2PO4, 0.8 mM MgCl2, 25 mM Hepes, 22 mM glucose) and then resuspended to a final density of 4×10^6 cells/ml. Equal volumes of cells, assay buffer with or without antibodies and ligand (SDF-1α) were mixed. The first two components (cells and antibodies) were pre-incubated for 15 min prior to adding the ligand, SDF-1α (final concentration 50 ng/ml). The final concentrations of antibodies were 10 μg/ml or 100 μg/ml for IgGs and 4 μg/ml for scFvs. The samples were immediately analyzed using the 515-545 nm band pass filter on a FACSCanto II (BD Biosciences). The areas under the curves (AUC) were integrated using software Prism (GraphPad) and plotted as percentage of AUC for maximal stimulation with SDF-1α alone.
The experiment was performed as described above, but the antibodies were used in a titration series with concentrations of 100, 20, 4, 0.8, 0.16, 0.032, 0.064 and 0.00128 μg/ml.

Ramos cells = test: Complement dependent cytotoxicity (CDC) in presence of human serum, calcein-AM release; format: cell-based; settings: IgG
Method: To test whether the anti-CXCR41 IgGs described herein are able to mediate complement dependent cytotoxicity, CDC experiments have been performed using Ramos cells which are derived from Burkitt's B-cell lymphoma and have constitutive expression of CXCR4.
Ramos cells were maintained as described above.
The Ramos cells, were sedimented by centrifugation and washed twice in RPMI-1640 culture medium. 2.5×10^6 cells/ml was mixed with calcein-AM (Invitrogen) to a final concentration of 10 μM and then incubated at 37° C. for 30 min. The cells were washed three times in RPMI-1640 with 10% FCS and the cell density was adjusted to 4×10^6 cells/mL. A 25 μl aliquot of labelled target cells and 25 μl of human serum were mixed in the wells in a 96-well microtiter plate. Dilutions of the antibodies (all in IgG format) were added to the same wells in 50 μl volume thus resulting in a final antibody concentration ranging from 5×10^−5 to 5×10^4 ng/ml. Twenty μl 0.9% Triton-X100 was added to control wells to achieve complete lysis of the target cells (maximal lysis defining 100%). The microtiter plate was incubated for 1 hr at 37° C. One hundred μl RPMI-1640 with 10% FCS was added to all wells followed by centrifugation and transfer of 100 μl supernatant of each sample to a black microtiter plate. The fluorescence (excitation at 488 nm, emission at 518 nm) was recorded using a TECAN M200 plate reader. Each experiment was carried out in quadruplicates. The fluorescence intensity of the samples without antibodies was subtracted as a background and the percentage of specific lysis in samples with antibodies was calculated. The dose-response curves were computed by nonlinear regression analysis and a three-parameter fit model using Prism software (GraphPad).

[1] = target: T2, monkey (Macaca mulatta) CXCR4 (Macaca mulatta, UniProt P79394); test: Species cross reactivity: binding to HEK-293 cells transiently expressing monkey CXCR4; settings: scFv level, transiently transfected HEK-293 cells
T2 construct: expressed in transfected cells; host or cells: HEK-293 (HEK293T/17), transient transfection with Fugene
Method: The antibody candidates were tested on scFv level for their ability to cross-react with CXCR4 from monkey and mouse.
HEK293T/17 cells were maintained as described above.
FACS-binding analyses (EasyCyte) were performed using HEK-293 cells transiently transfected with plasmids encoding either, mouse (Gene bank accession number BC031665) or monkey (Macaca mulatta) CXCR4 (NCBI Accession number NP_001036110). Two experiments were performed, one using α-cMyc and PE-labelled goat anti-mouse IgG antibody, the second using a directly conjugated RPE-c-Myc antibody for detection. In addition, cross-reactivity on IgG level was analysed. In the latter case, antibody binding was detected with PE-conjugated goat anti-human IgG antibody.

T1 sequence (P61073 whole entry): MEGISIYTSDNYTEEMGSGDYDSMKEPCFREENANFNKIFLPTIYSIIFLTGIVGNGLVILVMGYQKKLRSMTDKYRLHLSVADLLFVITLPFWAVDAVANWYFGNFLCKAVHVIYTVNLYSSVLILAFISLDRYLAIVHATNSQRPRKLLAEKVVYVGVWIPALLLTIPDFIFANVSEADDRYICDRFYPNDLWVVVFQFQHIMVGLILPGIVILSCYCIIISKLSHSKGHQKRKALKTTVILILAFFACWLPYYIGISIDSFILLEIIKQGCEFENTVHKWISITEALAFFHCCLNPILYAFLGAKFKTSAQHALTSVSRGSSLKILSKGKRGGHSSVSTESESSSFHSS
T2 sequence (P79394 whole entry): as the sequence (P61073 whole entry) above, with M24I, N35H, K38R, R146K, N176S, V214D counted along it

B1: C-1I24: human anti-CXCR4 antibody; scFv SEQ ID NO: 57; IgG1/lambda heavy chain SEQ ID NO: 116, light chain SEQ ID NO: 117 (antibody)
heavy: QVQLVQSGGGVVQPGRSLRLSCAASGFTFSSYGMHWVRQAPGKGLEWVAVISYDGSNKYYADSVKGRFTISRDNSKNTLYLQMNSLRAEDTAVYYCAKDLPITRGTGADYWGQGTLVTVSS[human IgG1 constant region left out]
light: QSVLIQPASVSGSPGQSITISCTGTSSDVGGYNYVSWYQQHPGKAPRLMIYDVTSRPSGVSNRFSGSKSGNTASLTISGLQAEDEADYYCSSYAGSYSVVFGGGTKVTVLGQPKAAPSVTLFPPSSEELQANKATLVCLISDFYPGAVTVAWKADSSPVKAGVETTTPSKQSNNKYAASSYLSLTPEQWKSHRSYSCQVTHEGSTVEKTVAPTECS
modifications: antibody sequence
inhibition of SDF-1α-induced signalling, IgG level (CXCR4; IgG 10 or 100 μg/ml (9N10: 1 or 10 μg/ml)): inhibition of SDF-1α-induced signalling was demonstrated
antagonistic activity on SDF-1α induced Ca++ flux, scFv level (CXCR4; scFv 4 μg/ml): some antagonistic effect
antagonistic effect on Ca++ signalling induced by SDF1α binding to CXCR4 (overall) (CXCR4; scFv and/or IgG): capable of inhibiting ligand induced signalling via CXCR4
CDC activity against Ramos cells (words) (Ramos cells): able to induce CDC; also recorded: superior CDC activity
maximum killing CDC (Ramos cells; Ramos cells, 1 hr): 100%
CDC activity against Ramos cells (words) (Ramos cells; listed as C1I24): good ability to induce CDC
cross-reactivity with monkey CXCR4 [1]: good cross-reactivity
cross-reactivity with monkey CXCR4 ([1]; listed as C1I24): bind to both human CXCR4 and monkey CXCR4

— patent publication US9353185B2, “Antibodies” (Affitech Research AS, priority 2010, dated 2016)
